Test system: Jurkat cell line (Mek/30)
Assay: THC-induced apoptosis in Jurkat cells inducibly expressing constitutively active MEK
Conditions: THC in the presence of doxycycline at 12 hours
From the text: Western analysis was used to monitor expression of the HA tag, and various proteins. Arrows represent THC-induced breakdown products or active caspases.
Based on this, THC-mediated down regulation of the MAPK signaling contributes to the marked potentiation of apoptosis. To define the functional role of enforced activation of MEK/ERK in regulating THC-induced cell death, a Jurkat cell line that inducibly expresses a constitutively active MEK construct (Mek/30) under the control of a doxycyline-responsive promoter was employed. […] However, when cells were cultured in the presence of doxycycline, a pronounced increase in expression of the HA tag was noted, along with substantial increases in expression of both phospho-MEK and -ERK. Enforced activation of ERK1/2 also diminished THC-mediated activation of procaspase-8, bid, -9 and -3, as well as PARP degradation.

For `CCCCCc1cc(O)c2c(c1)OC(C)(C)[C@@H]1CCC(C)=C[C@@H]21` [THC, Δ9-tetrahydrocannabinol], the apoptosis of cells was “essentially abrogated”.

— patent publication US8242178B2 (University of South Carolina, priority 2007, dated 2012)
